The record followed here is ChEMBL document CHEMBL1201862, “PubChem BioAssay data set” (2004).

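Grown in 96-well plates, cells were treated for 48 hours with each compound at five concentrations. Insufficient inhibition: endpoint recorded as highest concentration tested. GI50 is the concentration that inhibits growth by half.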 Activity calls are given as the source filed them. No stated cut-off is given here; in the data, active = GI50 up to about 1.1 µM and inactive = higher.

In this test the test system is NCI-H322M. In words: NCI-60 cell line screen, 48 h.
On to `O=C1c2ccccc2C(=O)c2c1oc1cc(O)c(Cl)cc21`, for which the GI50 is inactive: 10.9 µM.

For `Oc1ccc2ccccc2c1/N=N/c1ccccc1`, the GI50 was inactive: > 100 µM.

Take `O=C(O)c1nnsc1-c1csnn1`: the GI50 was inactive: > 100 µM.

For the compound `CC(=O)c1sc2c(c1OC(=O)c1ccccc1)c(=O)n(-c1ccccc1)c(=S)n2-c1ccccc1`, the GI50 is inactive: 5.26 µM.

For the compound `CC(=O)O[C@H]1[C@@H](OC2CCCC2(c2ccccc2)c2ccccc2)O[N+]([O-])=C[C@@H]1c1ccccc1` (stereo partly drawn), the GI50 was inactive: 15.1 µM.

Turning to `COC(=O)OCC1OC(N2C(=O)NC(=O)C(I)C2N=[N+]=[N-])CC1OC(=O)OC` (stereo not drawn), the GI50 is inactive: > 100 µM.

Turning to `CN1CCN(c2n[nH]c(=O)c3c2nnn3C2CCCCC2)CC1`, the GI50 was inactive: > 100 µM.

Take `CCOC(=O)C1CCC(=O)N1C(=O)c1cccc(Cl)c1` (stereo not drawn): the GI50 was inactive: > 100 µM.

As to `O=C(O)CC[P+](c1ccccc1)(c1ccccc1)c1ccccc1`, the GI50 was inactive: 71.8 µM.

Consider `C=CCN1C(N)=C(C#N)C(C#N)(C#N)C1CCC` (stereo not drawn), for which the GI50 is inactive: > 100 µM.

On to `CCN(CC)CCN(/C(=N/c1ccccc1)N1CCOCC1)c1ccccc1`, for which the GI50 is inactive: > 100 µM.

In the case of `O=C1NN=C(c2ccc(Cl)cc2)CC1C1C(=O)N(c2ccccc2)N=C1c1ccccc1` (stereo not drawn), the GI50 is inactive: 20.3 µM.

In the case of `CC(C)(C)OC(=O)NCCC1CN(C(=O)c2ccccc2)c2ccccc21` (stereo not drawn), the GI50 is inactive: 79.8 µM.

For `O=C(CSCC(=O)N/N=C/c1ccccc1)N/N=C\c1ccccc1`, the GI50 was inactive: > 100 µM.

On to `COC(=O)[C@]12CCC(C)(C)C[C@H]1C1=CC[C@@H]3[C@@]4(C)CC[C@H](OC5OC(CO)C(O)C(O)C5OC5OC(CO)C(O)C(O)C5O)C(C)(C)[C@@H]4CC[C@@]3(C)[C@]1(C)CC2` (stereo partly drawn), for which the GI50 is inactive: 6.19 µM.

Turning to `Cc1ccc(NC(=O)C(=O)CC(=O)c2ccccc2)cc1C`, the GI50 was inactive: > 100 µM.

Consider `O=C1Cc2c([nH]c3ccccc23)C2(CC3CCCCN13)OCCO2` (stereo not drawn), for which the GI50 was inactive: > 100 µM.

For the compound `Cc1cc2c(cc1-c1cc3c(cc1C)C(C(C)C)=C(O)C(=O)/C3=C\Nc1c3ccccc3nc3ccccc13)/C(=C/Nc1c3ccccc3nc3ccccc13)C(=O)C(O)=C2C(C)C`, the GI50 is inactive: 4.23 µM.

For `O=C(NC(=O)c1cn(CCN2CCN(C(=O)NCCCCCCNC(=O)N3CCN(CCn4cc(C(=O)NC(=O)OCc5ccccc5)c(=O)[nH]c4=O)CC3)CC2)c(=O)[nH]c1=O)OCc1ccccc1`, the GI50 was inactive: > 100 µM.

For `CCOc1ccc2nc3nc(O)nc(C)c3c(NCCCN(CC)CC)c2c1`, the GI50 was inactive: > 100 µM.

As to `CC(=O)Nc1ccc(NCC(=O)Nn2cnc3ccc(S(=O)(=O)Nc4ccc(NC(C)=O)cc4)cc3c2=O)cc1`, the GI50 was inactive: > 100 µM.

For the compound `CC(C)CC(=O)NS(=O)(=O)c1ccccc1`, the GI50 was inactive: > 100 µM.

For the compound `COC(=O)[C@@H]1N2C(=S)N(c3ccccc3)C(=O)[C@H]2SC1(C)C`, the GI50 was inactive: > 100 µM.

On to `Cc1c(C2Cc3ccccc3N2)c2ccccc2n1C` (stereo not drawn), for which the GI50 is inactive: > 100 µM.

Consider `CCCCCCCCCCCCCCCCSS(C)(=O)=O`, for which the GI50 is inactive: > 100 µM.

`CCOC(=O)C(=O)Nc1c(C)cccc1C(C)C`: the GI50 is inactive: > 100 µM.

On to `C=CCOC(=O)C[C@H](NC(=O)[C@H](Cc1ccc(O)cc1)NCC(F)(F)F)C(=O)OCC=C`, for which the GI50 was inactive: 70.5 µM.

Turning to `CC(C)C(NC(=O)C(Cc1ccccc1)NC(=O)[C@H]1CCC[C@H]1NC(=O)C(N)Cc1ccc(O)cc1)C(N)=O` (stereo partly drawn), the GI50 is inactive: > 100 µM.

Regarding `CCOC(=O)/N=C(\N)SCc1ccccc1`, the GI50 is inactive: > 100 µM.

Regarding `COC(=O)C1(C(C)C)CCc2c(OC)ccc(OC)c2C1=O` (stereo not drawn), the GI50 is inactive: > 100 µM.

Take `O=C1C2c3[nH]c4ccccc4c3C3CCCC3C2C(=O)N1c1ccccc1` (stereo not drawn): the GI50 is inactive: > 100 µM.

For the compound `Nc1nc(N)c(-c2ccc(Cl)cc2)c(CCC(=O)Nc2cccc(C(F)(F)F)c2)n1`, the GI50 was inactive: > 100 µM.

As for `NCCNCCNCc1c2ccccc2c(CNCCNCCN)c2ccccc12`, the GI50 is inactive: 22.3 µM.

As to `COc1cc2c(c(OC)c1OC)-c1ccc(SC)c(=O)cc1C(CC(=O)Oc1ccc(F)cc1)C2` (stereo not drawn), the GI50 is inactive: 2.31 µM.

Regarding `CC1=CC[C@](C)(O)[C@@]2(C)CC[C@H]3C(=C(C)C)C(=O)C[C@]3(C)C[C@H]12`, the GI50 was inactive: > 50 µM.

Turning to `C#CCn1c(=O)ccn(/C(=C\C(=O)OCC)C(=O)OCC)c1=O`, the GI50 was inactive: 19 µM.

Take `CCc1cc(CCC(=O)Nc2c(C)cccc2C)n[nH]1`: the GI50 was inactive: > 100 µM.

On to `COC(=O)/C=C(\C(=O)OC)C1C(=O)Oc2c(C)c(=O)c3ccccc3n21` (stereo not drawn), for which the GI50 is inactive: > 100 µM.

For the compound `COCCCNC(=O)C1C(=O)N(CCCOC)C(=O)/C1=N\N` (stereo not drawn), the GI50 is inactive: > 100 µM.

As for `O=c1c2c(sc3ccccc13)NCN(CCc1ccccc1)C2`, the GI50 is inactive: 45 µM.

On to `O=C(Nc1c(C(F)(F)F)cc(-c2ccccc2)[nH]c1=O)N1CCOCC1`, for which the GI50 was inactive: > 100 µM.

Take `O=c1cc(N2CCOCC2)[nH]c(=O)n1-c1cccc(C(F)(F)F)c1`: the GI50 was inactive: > 100 µM.

As for `CN1CCc2c1nc(-c1ccc(Cl)cc1)c1c2N(C)CC1`, the GI50 is inactive: 15.7 µM.

As to `COc1cccc(N2C(=O)/C(=C/c3ccc(N(CCC#N)CCC#N)cc3)N=C2c2cc([N+](=O)[O-])ccc2Cl)c1`, the GI50 was inactive: 51.5 µM.

Turning to `[N-]=[N+]=NC1=NNC2(C(=O)N1)c1ccccc1-c1ccccc12`, the GI50 was inactive: > 100 µM.

In the case of `O=C(c1ccc(Cl)cc1)C(O)c1ccc(Cl)cc1` (stereo not drawn), the GI50 is inactive: 43.1 µM.

Take `Cc1nc(Cl)c(Cl)c(Cl)n1`: the GI50 was active: 0.918 µM.

Turning to `CC1CC(Br)C(=O)O1` (stereo not drawn), the GI50 is inactive: > 100 µM.

With `O=Cc1ccc(OCc2cccc(COc3ccc(/C=N\Nc4ccc([N+](=O)[O-])cc4[N+](=O)[O-])cc3)n2)cc1`, the GI50 is inactive: > 100 µM.

As to `OC1C2[C@@H](O)CCCN2C[C@@H](O)[C@H]1O` (stereo partly drawn), the GI50 was inactive: > 100 µM.

For `CC(C)c1ccc(C(c2ccc(OCC(=O)O)cc2)c2ccc(C(C)C)cc(=O)c2O)c(O)c(=O)c1`, the GI50 is inactive: 10.7 µM.

For the compound `Cc1nc(-c2nc(C)c(C(=O)NNC(=O)C[n+]3ccccc3)s2)sc1C(=O)NNC(=O)C[n+]1ccccc1`, the GI50 was inactive: > 100 µM.

Take `C=CC(=O)N1C/C(=C\c2ccc(F)cc2)C(=O)/C(=C/c2ccc(F)cc2)C1`: the GI50 is inactive: 1.15 µM.

Regarding `CC(C)CC(N)C(=O)O` (stereo not drawn), the GI50 is inactive: > 100 µM.

For the compound `Cc1ccnc2nc(-c3ccc4ccccc4c3)cc(O)c12`, the GI50 was inactive: 1.39 µM.

In the case of `CN(C)Cc1cc(C(=O)/C=C/c2ccc(Cl)c(Cl)c2)cc(CN(C)C)c1O`, the GI50 is inactive: 3.09 µM.

On to `COc1cc2c[n+](C)c3c(c2cc1OC)Cc1cc2c(cc1-3)OCO2`, for which the GI50 was inactive: > 100 µM.

Consider `CC(C)(C)c1ccc(-c2nc3ccc([N+](=O)[O-])cc3c(=O)o2)cc1`, for which the GI50 was inactive: 29.9 µM.
